# Reference: PubChem BioAssay (NCATS)
# Inconclusive means that the source gave no clear call. Such entries were picked first, then a sample of the others. For some assays here: A potency beside an inconclusive call is a rough fit, not a confirmed value. Activity calls are given as the source filed them. Unless noted, the call rests on the fitted dose curve; in most records, active means well fitted curve in the direction sought with a large enough effect; inconclusive means small, poorly fitted or top-dose-only effect, or another doubt; inactive means no such curve, though single readings can be large; an effect the other way counts as inactive or inconclusive.
# Experiments:
# [1] = Quantitative high throughput screen for delayed death inhibitors of the malarial parasite plastid, 96 hour incubation (AID 488745); conditions: Plasmodium falciparum growth; series mostly up to 28.7 µM;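 further: luciferase-expressing P. falciparum in erythrocytes at 2% hematocrit and 0.1% parasitemia; on the % scale 0 is the no-effect control and ±100 the full control effect; nearly all actives have a fitted effect of over 70% in size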
# How it was run: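 Luciferase-expressing P. falciparum, infected RBCs 2% Hct/0.1% parasitemia (final); 96 h cpd exposure, 37 C, 5% CO2; RPMI 1640 + 0.5% Albumax, bicarbonate, gentamycin. Readout: luminescence loss = growth inhibition.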
# [2] = qHTS to identify inhibitors of the type 1 interferon - major histocompatibility complex class I in skeletal muscle: primary screen against the NCATS Pharmaceutical Collection (AID 1347407); conditions: human skeletal muscle cells, IFN-b-induced MHC-I HiBiT luminescence, 24 h; series mostly up to 45.9 µM;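 further: luminescence of HiBiT knocked into endogenous HLA-B as interferon-induced MHC class I level; potency means the concentration at half of the fitted maximal effect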
# How it was run: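 Compounds […] were added to CRISPR-engineered HLA-B-HiBiT C25cl48 human myoblasts with 4.0 ng/ml IFN-beta. After 24 hrs at 37 C, cells were lysed and HiBiT luminescence measured.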
# [3] = target: Cytochrome P450 2C9 (Homo sapiens) (UniProt P11712); assay: qHTS Assay for Inhibitors and Substrates of Cytochrome P450 2C9 (AID 883); conditions: recombinant CYP2C9, luciferin-H luminescence, 60 min; series mostly up to 57.1 µM; further: on the % scale 0 is the no-effect control and ±100 the full control effect; nearly all actives have a fitted effect of over 60% in size
# How it was run: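 Luminescent read-out of deoxyluciferin hydroxylation, normalized to 57uM sulphaphenazole (AC100). Reaction: 10nM enzyme, 100uM Luciferin-H (equal to KM), 25mM KPO4, 10 min compound preincubation, then 60 min with NADPH regeneration, both at 37C.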
# [4] = Validation screen for small molecules that induce DNA re-replication in MCF 10A normal breast cells (AID 463097); conditions: MCF 10A cells, DNA re-replication phenotype imaging; series mostly up to 46.1 µM; further: 0% is about no effect; nearly all actives have a fitted effect of over 60% in size
# How it was run: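 Read-out is Hoechst total nuclear intensity by fluorescence scanning imager, flagging increased high-DNA-content nuclei. Compounds were incubated with MCF 10A cells for 48 hr (37 C, 5% CO2) before 40 min staining.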
# [5] = target: D(1A) dopamine receptor (Homo sapiens) (UniProt P21728); assay: HTS Assay for Allosteric Agonists of the Human D1 Dopamine Receptor: Primary Screen for Potentiators (AID 488982); conditions: HEK293 T-REx D1 inducible cells, calcium flux, kinetic fluorescence; series mostly up to 8.37 µM; further: potency means the concentration at half of the fitted maximal effect
# How it was run: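 Calcium flux in an inducible, force-coupled HEK293 Trex D1 line (overnight at 30 C): agonist mode is the 180 s kinetic read after compound; potentiator mode is the following 180 s read after dopamine at EC20.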
# [6] = Cell Viability - Hek293 (AID 427;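 active means compounds whose dose-response curve shows a full or clear partial loss of cell viability, called from curve shape rather than a numeric limit; inconclusive means weak partial curves or an effect only at the top dose; inactive means no dose-dependent loss of viability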;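 further: potency means the concentration at half of the fitted maximal effect; cells exposed to compound for 40 hours at 37 °C before reading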); conditions: qHTS
# How it was run: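 AC50 values derive from Hill-modelled concentration-response of ATP-based luminescence, normalized between DMSO-only and 100 uM tamoxifen controls. Cells were exposed in complete culture medium for 40 hr at 37 °C before detection.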
# [7] = Cell Viability - SK-N-SH (AID 435; calls by dose curve; further: potency means the concentration at half of the fitted maximal effect); conditions: SK-N-SH neuroblastoma cell viability qHTS
# How it was run: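 qHTS cytotoxicity: CellTiter-Glo ATP luminescence after 40 h compound exposure of human neuroblastoma SK-N-SH cells at 37 °C. AC50 derived by Hill-equation fitting, with DMSO as basal and 100 uM tamoxifen as full inhibition.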
# [8] = Cell Viability - Mesenchymal (AID 546); conditions: mesenchymal cells viability, qHTS; activity change, negative = cytotoxicity: at 91.7 µM (top of the series);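 further: cells exposed to compound for 40 hours before reading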
# How it was run: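 CellTiter-Glo luminescence (intracellular ATP, 20 min room temperature) after 40 hr compound exposure at 37 °C of 1000 glomerulus-derived human kidney mesenchymal cells/well; AC50 values obtained by fitting qHTS concentration-response data to the Hill equation.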
# [9] = Cellular Toxicity (caspase-3) NIH 3T3 (AID 666); conditions: NIH 3T3 caspase-3 activation, apoptosis/toxicity, 0% DMSO, 100% is 100 µM tamoxifen; at 92.2 µM (top of the series);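 further: caspase signal read after 16 h compound exposure; 0% = DMSO basal and 100% = 100 µM tamoxifen stimulation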
# How it was run: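 NIH 3T3, 1000 cells/well, 5 hr settle then 16 hr compound at 37°C; Caspase-Glo 3/7, 20 min RT, luminescence. DMSO = basal, 100 uM tamoxifen = 100%. Hill-equation AC50, qHTS.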
# [10] = Cell Viability - LYMP2-009 (AID 968); conditions: LYMP2-009 lymphoblastoid cell viability; series mostly up to 92.2 µM; further: potency means the concentration at half of the fitted maximal effect; nearly all actives have a fitted effect of over 55% in size
# [11] = Cell Viability - LYMP2-021 (AID 974); conditions: LYMP2-021 lymphoblastoid cells viability; series mostly up to 92.2 µM;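 further: potency means the concentration at half of the fitted maximal effect; compound exposure lasts 24 hours at 37 °C; nearly all actives have a fitted effect of over 55% in size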
# How it was run: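 ATP luminescence (CellTiter-Glo, 30 min RT) after 24 h compound exposure at 37 C; 2500 human lymphoblastoid cells/well, 5 h settle beforehand. Cytotoxicity = concentration-dependent ATP drop, AC50 by Hill fit.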
# [12] = Cell Viability - LYMP2-007 (AID 979); conditions: LYMP2-007 lymphoblastoid cell viability; series mostly up to 92.2 µM;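 further: potency means the concentration at half of the fitted maximal effect; cells exposed to compound for 24 h before reading; nearly all actives have a fitted effect of over 60% in size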
# How it was run: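 qHTS cytotoxicity: 2500 cells/well, 5 hr 37 C settle, compound 24 hr 37 C, CellTiter-Glo 30 min RT, luminescence. Decrease in ATP = toxicity. AC50 by standard Hill equation; tetraoctylammonium bromide positive control.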
# [13] = Cell Viability - LYMP2-022 (AID 987); conditions: LYMP2-022 lymphoblastoid cell viability; series mostly up to 92.2 µM; further: potency means the concentration at half of the fitted maximal effect; nearly all actives have a fitted effect of over 55% in size
# How it was run: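 Luminescent ATP read-out (CellTiter-Glo, 30 min, RT) after 24 hr, 37 C compound exposure of 2500 human lymphoblastoid cells/well in complete medium. Cytotoxicity taken as concentration-dependent ATP loss; AC50 from standard Hill equation.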
# [14] = qHTS assay for small molecule disruptors of the mitochondrial membrane potential - 1 hr assay (AID 651754; calls by dose curve; further: on the % scale 0 is the no-effect control and ±100 the full control effect; nearly all actives have a fitted effect of over 35% in size); conditions: ratio change, negative = depolarisation: at 92.2 µM (top of the series)
# How it was run: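 Read-out: dye fluorescence at 490 nm ex/535 nm em (monomers) and 540 nm ex/590 nm em (aggregates) in HepG2 cells. Compound exposure 1 hr at 37C, followed by 30 min dye loading.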
# [15] = target: DNA repair nuclease/redox regulator APEX1 (Homo sapiens) (UniProt P27695); assay: qHTS Validation Assay for Inhibitors of the Human Apurinic/apyrimidinic Endonuclease 1 (APE1) (AID 1705;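 further: TAMRA fluorescence gain over two minutes as APE1 cuts a quenched THF abasic duplex; on the % scale 0 is the no-effect control and ±100 the full control effect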); conditions: purified APE1 endonuclease activity, fluorescence, titration; series mostly up to 57.1 µM
# How it was run: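 Activity read as rising fluorescence (598 nm emission, 525 nm excitation) from incision of a TAMRA/BHQ-2 duplex carrying a THF abasic site (50 nM). Compound and enzyme sat 15 min at RT before substrate start; signal change between first and third 60-s reads.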
# [16] = target: Thioredoxin reductase 1, cytoplasmic (Rattus norvegicus) (UniProt O89049); assay: qHTS Assay for Substrates of Mammalian Selenoprotein Thioredoxin Reductase 1 (TrxR1) (AID 488772); conditions: purified TrxR1, NADPH consumption substrate assay; series mostly up to 57.1 µM;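 further: 0% is about no effect; a drop in NADPH fluorescence below the no-compound background marks a TrxR1 substrate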
# How it was run: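 In this dual-purpose format, potential substrates are identified from the first fluorescence read after selenite addition, not from the 8-minute delta. Rat enzyme is preincubated with NADPH and then with compound at ~22 deg C.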
# [17] = target: D(1A) dopamine receptor (Homo sapiens) (UniProt P21728); assay: HTS Assay for Allosteric Agonists of the Human D1 Dopamine Receptor: Primary Screen for Antagonists (AID 488983); conditions: D1 receptor cell assay, antagonist mode, qHTS titration; activity change, negative = inhibition: at 41.8 µM (top of the series);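 further: calcium flux response to an EC80 dopamine challenge measured with no-wash dye; on the % scale 0 is the no-effect control and ±100 the full control effect; nearly all actives have a fitted effect of over 65% in size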
# How it was run: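 Calcium flux readout, no-wash dye, inducible HEK293 T-REx D1 line (force-coupled). Compound added after 10 s baseline, 180 s kinetic read; then dopamine at EC80, further 180 s read.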
# [18] = qHTS of pediatric cancer cell lines to identify multiple opportunities for drug repurposing: Primary screen for SK-N-SH cells (AID 1347098); conditions: SK-N-SH viability, CellTiter-Glo luminescence, 48 h; series mostly up to 57 µM;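 further: DMSO served as neutral control and bortezomib at 2.3 µM as positive control; on the % scale 0 is the no-effect control and ±100 the full control effect; nearly all actives have a fitted effect of over 65% in size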
# How it was run: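 Cells (500-1,000/well) rested 5 h, then received compounds for 48 h; metabolically active cells were measured by CellTiter-Glo luminescence. Final concentrations spanned up to 46 µM (MIPE, 11-point) or 0.59 nM-46 µM (NPC, 8-point) in primary screens, 11-point in follow-ups.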
# [19] = tested on: Zika virus NS2B-NS3 protease (linked construct); assay: Confirmatory screen NINDS AMC qHTS for Zika virus inhibitors (AID 1347152); conditions: Purified linked NS2B-NS3, AMC substrate fluorescence; series mostly up to 56.6 µM; further: potency means the concentration at half of the fitted maximal effect; nearly all actives have a fitted effect of over 70% in size
# How it was run: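 IC50s from 4-parameter Hill fits of percent inhibition, based on AMC fluorescence gain (340/450 nm) over 15 min with 10 microM Bz-Nle-KRR-AMC. Enzyme: 1 nM linked NS2B-NS3 in Tris-HCl pH 8.0; 15-min compound preincubation.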
# [20] = tested on: Zika virus NS2B-NS3 protease (unlinked complex); assay: Confirmatory screen GU AMC qHTS for Zika virus inhibitors (AID 1347153); conditions: Recombinant NS2B-NS3 protease, AMC substrate fluorescence; series mostly up to 57.1 µM;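 further: percent inhibition with 0% = no inhibitor control and 100% = no enzyme control; nearly all actives have a fitted effect of over 70% in size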
# How it was run: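 Unlinked enzyme 25 nM, Tris pH 8.0/0.01% Tween 20; cpd 15 min RT, dark; + AMC substrate 10 µM (Km 18.3 µM); 340/450 nm read at t0 and 15 min; % inhibition → 4-param fit.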
# Tags describe the fitted curve by direction and shape.
# Sequence of UniProt P21728 (P21728 whole entry, looked up): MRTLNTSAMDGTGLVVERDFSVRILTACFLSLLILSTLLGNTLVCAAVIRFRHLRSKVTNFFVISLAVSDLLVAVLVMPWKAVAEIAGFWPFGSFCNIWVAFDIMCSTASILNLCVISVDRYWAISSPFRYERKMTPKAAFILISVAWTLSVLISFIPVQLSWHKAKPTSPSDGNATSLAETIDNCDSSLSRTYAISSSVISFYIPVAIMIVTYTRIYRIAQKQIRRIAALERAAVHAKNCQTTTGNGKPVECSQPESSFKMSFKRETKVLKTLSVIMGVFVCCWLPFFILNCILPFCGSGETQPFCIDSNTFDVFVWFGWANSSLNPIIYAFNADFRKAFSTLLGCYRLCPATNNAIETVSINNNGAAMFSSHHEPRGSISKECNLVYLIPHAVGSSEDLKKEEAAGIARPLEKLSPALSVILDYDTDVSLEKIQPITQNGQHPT
# Sequence of UniProt P11712 (P11712 whole entry, looked up): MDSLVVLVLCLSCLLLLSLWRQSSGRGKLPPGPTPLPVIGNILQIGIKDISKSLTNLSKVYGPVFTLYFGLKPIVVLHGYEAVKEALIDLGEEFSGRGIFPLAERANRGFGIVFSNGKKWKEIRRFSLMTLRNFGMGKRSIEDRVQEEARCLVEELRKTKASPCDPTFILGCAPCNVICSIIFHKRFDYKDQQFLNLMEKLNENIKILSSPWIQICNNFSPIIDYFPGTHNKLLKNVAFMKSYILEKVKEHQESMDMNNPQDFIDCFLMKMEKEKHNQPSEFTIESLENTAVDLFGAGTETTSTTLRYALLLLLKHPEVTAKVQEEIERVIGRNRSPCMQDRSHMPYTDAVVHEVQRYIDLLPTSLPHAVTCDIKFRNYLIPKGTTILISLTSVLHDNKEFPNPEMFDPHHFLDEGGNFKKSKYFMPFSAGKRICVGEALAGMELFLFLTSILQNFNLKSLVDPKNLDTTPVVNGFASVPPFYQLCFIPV
# Sequence of UniProt P27695 (P27695 whole entry, looked up): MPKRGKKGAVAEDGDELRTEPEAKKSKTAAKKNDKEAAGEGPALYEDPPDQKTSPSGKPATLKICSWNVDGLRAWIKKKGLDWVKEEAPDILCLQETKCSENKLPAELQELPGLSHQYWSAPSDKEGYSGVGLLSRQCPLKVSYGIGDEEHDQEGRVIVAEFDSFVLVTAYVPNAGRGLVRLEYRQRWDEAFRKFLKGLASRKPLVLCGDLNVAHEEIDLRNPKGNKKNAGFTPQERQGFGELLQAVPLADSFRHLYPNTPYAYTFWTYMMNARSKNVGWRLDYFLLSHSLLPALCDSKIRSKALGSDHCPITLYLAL
# Sequence of UniProt O89049 (O89049 whole entry, looked up): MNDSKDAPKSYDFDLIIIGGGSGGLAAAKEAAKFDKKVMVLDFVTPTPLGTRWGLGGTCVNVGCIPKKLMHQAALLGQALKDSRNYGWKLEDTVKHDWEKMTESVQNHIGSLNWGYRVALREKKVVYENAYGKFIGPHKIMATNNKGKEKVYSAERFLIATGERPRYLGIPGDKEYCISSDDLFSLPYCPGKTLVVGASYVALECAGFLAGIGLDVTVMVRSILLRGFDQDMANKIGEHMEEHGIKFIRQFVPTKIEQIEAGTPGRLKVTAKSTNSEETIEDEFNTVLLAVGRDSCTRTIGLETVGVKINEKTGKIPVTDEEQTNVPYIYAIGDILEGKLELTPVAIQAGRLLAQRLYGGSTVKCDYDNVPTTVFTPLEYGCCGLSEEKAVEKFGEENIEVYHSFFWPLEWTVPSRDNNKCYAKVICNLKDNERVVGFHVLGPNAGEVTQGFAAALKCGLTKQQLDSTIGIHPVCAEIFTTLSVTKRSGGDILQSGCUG
smiles,measurement,setting,value
CN(C)C(=O)Oc1ccc[n+](C)c1,Potency,[1],inactive
Cc1cc(NC(=O)C2=C(O)c3ccccc3S(=O)(=O)N2C)no1,Potency,[2],"inconclusive: 33.3 µM [inhibitor, single point]"
NCCCC(=O)O,Potency,[3],inactive
same,Potency,[4],inactive
same,Potency,[5],"inconclusive: 4.11 µM [activator, partial curve, poor fit]"
Oc1cccc(O)c1O,Potency,[6],inconclusive: 94.8 µM [single point]
same,Potency,[7],inconclusive: 111 µM [single point]
same,"activity change, negative = cytotoxicity",[8],inconclusive: -35.2%
same,caspase-3 activation,[9],inactive: -8.58%
same,Potency,[10],"inconclusive: 79.4 µM [cytotoxic, single point]"
same,Potency,[11],"inconclusive: 79.4 µM [cytotoxic, single point]"
same,Potency,[12],"inconclusive: 79.4 µM [cytotoxic, partial curve, poor fit]"
same,Potency,[13],"inconclusive: 50.1 µM [cytotoxic, partial curve, poor fit]"
same,"ratio change, negative = depolarisation",[14],inconclusive: -15.9%
O=C(NCCNCC(O)COc1ccc(O)cc1)N1CCOCC1 (stereo not given),Potency,[15],inactive
C[N+](C)(C)CCOP(=O)(O)OP(=O)([O-])OC[C@H]1O[C@@H](n2ccc(N)nc2=O)[C@H](O)[C@@H]1O,Potency,[16],inactive
same,Potency,[17],inactive
Cc1cccc(C)c1NC(=O)CN(CC(=O)O)CC(=O)O,Potency,[18],inactive
CO[C@H]1C[C@H](O[C@@H]2/C(C)=C/C[C@@H]3C[C@@H](C[C@]4(CC[C@H](C)[C@@H](C5CCCCC5)O4)O3)OC(=O)[C@@H]3C=C(C)/C(=N/O)[C@H]4OC/C(=C\C=C\[C@@H]2C)[C@]43O)O[C@@H](C)[C@@H]1O,Potency,[19],"inconclusive: 27.1 µM [inhibitor, partial curve, poor fit]"
same,Potency,[20],inactive
